From PubChem BioAssay (NCI) come the findings set out here.

The structures appear in SMILES notation. Several values for one entry are separate records, joined by “and”; a condition that tells them apart may be missing. Equal values may be shown once.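 Five concentrations, 48 hours, 96-well plates. GI50 marks 50% less growth. Definition used: TGI = concentration required for complete inhibition of growth.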 Some results are limits rather than exact numbers.

The assay relates to NCI-H322M lung. Put plainly: NCI tumour cell line growth inhibition, 48 h.
The molecule `CCCCCC(=O)OC[n+]1ccc2c(C)c3[nH]c4ccccc4c3c(C)c2c1` came in with a TGI of 2.38 µM. Turning to `CN(C)c1ccc(/C=C/C(=O)c2ccc(Nc3nc(Nc4ccc(F)cc4)nc(Nc4ccc(Cl)cc4)n3)cc2)cc1`, the GI50 is 21.6 µM and the TGI is greater than 100 µM. `Cc1cccc2ns[s+]c12` gave a TGI greater than 100 µM. Still for that read-out and setting: the value for `CC(C)OP(=O)(OC(C)C)c1ncn(-c2ccc([N+](=O)[O-])cc2)n1` was greater than 100 µM; that for `O=S(=O)(CC#CCS(=O)(=O)c1ccccc1)c1ccccc1` was 30.8 µM.

Take `COc1ccc(/C=C2\CN(Cc3cn(CCCNc4ccnc5cc(Cl)ccc45)nn3)C/C(=C\c3ccc(OC)cc3)C2=O)cc1`: the GI50 is 10.3 µM and the TGI stood at 25.7 µM. Molecule `CCN(CC)CC(C(=O)Nc1c(C)cccc1C)/C(C)=N/NC(N)=S` (stereo unspecified) returned a TGI greater than 100 µM.

`CC1=CC(=O)C[C@]2(C)[C@@H](O)CC(C(C)CO)C[C@@H]12` (stereo partly specified) showed a TGI greater than 100 µM.

In the case of `CC(=O)OC1C(OC/C2=C/C3[C@@H](C(C)C)CC=C(C)[C@@H]3CC(OC(=O)/C=C/c3cn(C)cn3)[C@]3(C)C=C[C@@]2(O)O3)OCC(O)C1O` (stereo partly specified), the GI50 was 0.0177 µM and the TGI was greater than 34.8 µM.

For the molecule `CC(CCC/C=C/CCCN(C)C(=N)N)CC(C)C1OC(=O)C(C)C(O)/C=C/C(C)C(O)C(C)C(O)C(C)C(O)CCCC(O)CC2(O)OC(CC(OC(=O)CC(=O)O)CC(O)CC(O)C(C)C(O)/C=C/C=C/C1C)CC(O)C2O` (stereo unspecified), the GI50 was 13.1 µM and 11 µg/mL; the TGI was 28.5 µM and 22.7 µg/mL. Molecule `Cc1nc2c(=O)n(C)c(=O)nc-2n(-c2ccc(Cl)cc2)c1C` displayed a TGI greater than 100 µM. The molecule `OB1OCc2ccccc21` showed a TGI greater than 100 µM. Still for that read-out and setting: the value for `O=c1c2ccccc2nc(-c2ccccc2Cl)n1NC1OC(CO)C(O)C(O)C1O` (stereo unspecified) was greater than 100 µM. Take `Nc1cc(N)c2nc(-c3ccccc3)c(Sc3ccc(F)cc3)nc2c1`: the GI50 is 20.6 µM and the TGI is 38.1 µM. Regarding `Cn1c(N)c(N=Nc2ccc(S(N)(=O)=O)cc2)c(=O)n(C)c1=O`, the TGI is greater than 100 µM. In turn, `CC(C)CCC[C@@H](C)[C@H]1CC[C@H]2[C@@H]3CC=C4CC(OCCCCN(O)CCCSC5OC(CO)C(O)C(O)C5O)CC[C@]4(C)[C@H]3CC[C@]12C` (stereo partly specified) had a TGI greater than 100 µM. The molecule `CC(C)NC(=O)OCc1c(COC(=O)NC(C)C)c(-c2ccc[n+](COC(=O)C3CCCCC3)c2)n2c1CCC2` displayed a TGI greater than 100 µM.

Take `O=C1[C@@H]2C3C=CC([C@H]4C(=O)N(CO)C(=O)[C@@H]34)[C@@H]2C(=O)N1CO`: the TGI is greater than 100 µM. In the case of `CCCCCCCCCCCCOC1C(C(COC2OC(C(O)CO)C3OC(C)(C)OC23)OC(=O)Nc2ccc([N+](=O)[O-])cc2)OC2OC(C)(C)OC21` (stereo unspecified), the GI50 was 6.01 µM and the TGI was 19 µM.

`O=C(Nc1cccc(Cl)c1)c1cc2cc(N=Nc3ccc(Br)cc3)ccc2oc1=O` returned a TGI greater than 100 µM. The same measure, in the same setting: under `S=C(N/N=C/c1ccccc1)NC1CC(c2ccccc2)Oc2ccccc21` (stereo unspecified) stands greater than 100 µM. Regarding `C[As](C)SCC(COC(=O)c1ccccc1)OC(=O)c1ccccc1` (stereo unspecified), the GI50 was 0.847 µM and the TGI is 5.12 µM. `NCCN.O=N[O-].O=N[O-].O=N[O-].O=N[O-].[Co+3].[K+]`: the GI50 was greater than 100 µM and the TGI is greater than 100 µM. Take `CCOC(=O)c1ccccc1NC(c1ccccc1)c1ccc2cccnc2c1O` (stereo unspecified): the GI50 is 3.57 µM and the TGI was greater than 100 µM. In the case of `C[N+](C)(C)CC(=O)N/N=C(\C(=O)Nc1ccc(Cl)cc1)C1C(=O)N(c2ccccc2)N=C1N` (stereo unspecified), the TGI is greater than 100 µM. In the case of `O=C(C(=O)n1ccc2ccccc21)c1c[nH]c2ccccc12`, the TGI was greater than 10 µM. Same read-out and setting: the value for `COC(=O)C1(C(=O)OC)CC2=C(S(=O)(=O)c3ccccc3)C[C@@H](C#N)[C@H]2C1` was greater than 100 µM; that for `COc1cc(NS(C)(=O)=O)ccc1N1Cc2cnc3ccc4[nH]ccc1c4c23` was greater than 100 µM. For `COC(=O)C(I(OS(=O)(=O)c1ccc(C)cc1)c1ccccc1)=P(c1ccccc1)(c1ccccc1)c1ccccc1`, the TGI worked out at 87.1 µM. `CCOc1c(OC)cc(CNNc2nccs2)cc1OC`: the TGI was greater than 100 µM.

For the molecule `O=C(C(Cl)=C(Nc1ccccc1)Nc1ccccc1)C(Cl)Cl`, the TGI is 73.1 µM. Consider `Cc1nc2cc(NC(=O)CN3CCN(CCN4C(=O)c5cccc6cccc(c56)C4=O)CC3)ccc2s1`, for which the GI50 is 6.88 µM and the TGI was greater than 100 µM. Regarding `Cc1cc2c(C#N)n3c(c2cc1C)C(=O)C(c1ccccc1)Oc1ccccc1-3` (stereo unspecified), the GI50 is greater than 100 µM and the TGI was greater than 100 µM. As to `COc1ccc2c(c1)CCC1C2CCC2(C)C1CC[C@@]2(O)CNC(=O)/C=C/c1ccc(O)c(O)c1` (stereo partly specified), the GI50 was 4.29 µM and the TGI was found to be 17.4 µM. Molecule `O=S(=O)(N1CCCCN(S(=O)(=O)C(F)(F)F)CCCN(S(=O)(=O)C(F)(F)F)CCCN(S(=O)(=O)C(F)(F)F)CCCCN(S(=O)(=O)C(F)(F)F)CCCN(S(=O)(=O)C(F)(F)F)CCC1)C(F)(F)F` came in with a TGI greater than 100 µM. In turn, `CCO/C=N/C1=C(C#N)C(c2ccc(OC)c(OC)c2)c2c(-c3ccccc3)nn(-c3ccccc3)c2O1` (stereo unspecified) came in with a TGI of 75.4 µM. As to `CCOC(=O)C(Cc1ccc(N(CCCl)CCCl)cc1)NC(=O)C(CC(C)C)NC(C)=O` (stereo unspecified), the GI50 is 13.1 µM and the TGI is 31.2 µM. In the same order, the values of `O=C(/C=C\c1ccc(Cl)c(Cl)c1)c1ccccc1` are 14 µM and 27.1 µM. In the same order, the values of `CCN(CC)CCC(CNc1c2ccc(Cl)cc2nc2ccc(OC)cc12)c1ccccc1` (stereo unspecified) are 1.43 µM and 3.99 µM. Regarding `CNCc1ccc(C)c(NC(=O)c2ccc(Nc3nc(-c4ccccc4)c4ccccc4n3)cc2)c1`, the GI50 was 1.9 µM and the TGI amounted to 3.78 µM. For the molecule `COc1nc(NC2OCC(OC(C)=O)C(OC(C)=O)C2OC(C)=O)c(N=C(C)C(C)=O)c(=O)n1C` (stereo unspecified), the TGI is greater than 100 µM. The molecule `COc1cc(C2C(C(=O)Nc3ccc(Cl)c(Cl)c3)=C(C)NC(C)=C2C(=O)Nc2ccc(Cl)c(Cl)c2)ccc1O` had a TGI of 36.6 µM. With `CCOC(=O)C1(C/C=C\CBr)CCCCCCC1=O` (stereo unspecified), the TGI is greater than 100 µM. With `COc1ccc2[nH]c3c(C)c4ccnc(NCCCN(C)CCCNC(=O)NCCCN(C)CCCNc5nccc6c(C)c7[nH]c8ccc(OC)cc8c7c(C)c56)c4c(C)c3c2c1`, the TGI was determined as 4.85 µM. Regarding `C/C=C\C(C)=C/C(C)C(=O)CC(O)CC1CC(=O)NC(=O)C1` (stereo unspecified), the TGI is greater than 100 µM.

Turning to `COC(=O)c1ccc2[nH]c3c(c2c1)CC(=O)Nc1ccccc1-3`, the TGI was greater than 100 µM. Turning to `CC[N+]1(C)CCC(O)(/C=C/c2ccccc2)C(C(=O)/C=C/c2ccccc2)C1` (stereo unspecified), the TGI is 33.6 µM. With `CCS(=O)(=O)Nc1ccc(Oc2ccc(F)cc2F)c(-c2cn(C)c(=O)c3[nH]ccc23)c1`, the GI50 was 0.0459 µM and the TGI was 18.4 µM. Regarding `CCCCCCc1cc2cc(C(=O)Nc3cccc(C(F)(F)F)c3)c(=N)oc2cc1O`, the TGI was determined as 9.27 µM.

Consider `Cc1cccc(NC(=O)c2sc3nc4c(cc3c2N)CCC4)c1C`, for which the GI50 was 0.714 µM and the TGI amounted to 48.3 µM. In the case of `O=C1c2c(ccc3c2CCCC3)CC12Cc1ccccc1C2`, the TGI was greater than 79 µM. With `C[C@H]1C(=O)C2=C[C@H]1CCC(=O)[C@]1(C)CCCC(C)(C)[C@H]1C[C@H]2O`, the TGI is greater than 100 µM. In turn, `CC(=O)OC12CCCCC1C1(CCCC1)NC2=O` (stereo unspecified) came in with a TGI greater than 100 µM. In the case of `N#CC1=C(N)Oc2c(ccc3ccccc23)C1c1ccccc1Cl` (stereo unspecified), the GI50 is 0.705 µM and the TGI is 21.1 µM. Molecule `COc1cccc(C(=O)C(O)c2cccc(OC)c2OC)c1OC` (stereo unspecified) returned a TGI greater than 100 µM. Same read-out and setting: under `COc1cccc2c1C(=N)c1c(O)c3c(c(O)c1C2=O)C[C@@](O)(C(C)=O)C[C@@H]3OC1CC(N)C(O)C(C)O1` (stereo partly specified) stands 7.18 µM and 16.1 µM and 5.97 µM.

For `COC(=O)c1cc2c([nH]c3ccccc32)c(-c2nc3cc(N(S(=O)(=O)c4ccc(C)cc4)S(=O)(=O)c4ccc(C)cc4)c(OC)cc3cc2CO)n1`, the GI50 is greater than 100 µM and the TGI was greater than 100 µM. In the case of `Nc1cc2[nH]c(=O)c3cc(Cl)ccc3c2cc1Cl`, the TGI was determined as 48.7 µM. Molecule `CN(C)CCCNc1ccc2nnn3c4ccc([N+](=O)[O-])cc4c(=O)c1c23` yielded a TGI of 4.81 µM. As to `O=C1c2ccccc2CC1C1(O)C(=O)Nc2c(Cl)cc(Cl)cc21` (stereo unspecified), the TGI was greater than 100 µM.

`Cc1ccc(S(=O)(=O)NC2(C=O)CCC(C(C)(C)C)CC2)cc1` (stereo unspecified) returned a TGI greater than 100 µM. As to `C=CC(=O)N1CC[C@@H](Oc2nc(Nc3ccc(N4CCC(N5CCN(C)CC5)CC4)cc3)c(C(N)=O)nc2CC)C1`, the GI50 is greater than 100 µM and the TGI is greater than 100 µM.

In the case of `COc1cc(C2c3cc4c(c(O)c3C(=O)C3CCC(=O)N32)OCO4)cc(OC)c1OC` (stereo unspecified), the TGI is greater than 100 µM. On the same count and under the same terms, the value for `Cn1c(N)cc(=O)nc1N` was greater than 100 µM; that for `O=C1CSC(c2ccc(Cl)cc2)N1c1ccc(-n2c(-c3ccccc3)nc3ccccc3c2=O)cc1` (stereo unspecified) was greater than 100 µM; that for `Fc1ccccc1N=c1oc2ccc(Br)cc2cc1-c1nc2ccccc2[nH]1` was greater than 46.9 µM.

The molecule `N#Cc1c(C#N)c(-c2ccco2)n(/N=C/c2ccco2)c1N` returned a TGI greater than 100 µM. The same measure, in the same setting: the value for `CC(C)(C)C(=O)C(C#N)C(=O)C(C)(C)C` was greater than 100 µM; that for `CCCC1C2=C(C(=O)OC2=O)C2C(CC)CC3=C(C(=O)OC3=O)C12` (stereo unspecified) was greater than 100 µM.

On to `COc1ccc(N=Nc2ccc3oc(=O)c(C(=O)Nc4ccc(OC)cc4)cc3c2)cc1`, for which the TGI worked out at 80.6 µM. On to `COc1ccc(C2Oc3cc(OC)c(O)cc3[C@@H]2C)cc1` (stereo partly specified), for which the TGI was greater than 100 µM.

Molecule `CC(=O)/C=C\C(=O)NNS(=O)(=O)c1ccc(C)cc1` displayed a TGI greater than 100 µM. Molecule `O=C(Cc1nc2ccccc2s1)C(=O)Nc1ccccc1C(F)(F)F` displayed a TGI greater than 100 µM. The molecule `O=C1c2ccccc2C(=O)c2c1c1cc(O)ccc1n2Cc1ccc(Cl)cc1Cl` showed a TGI of 51.1 µM.

`O=C(N/N=C/c1cc(-c2ccccc2Cl)c(-c2ccccc2Cl)o1)c1ccncc1` displayed a TGI greater than 100 µM.

On to `C=C1C(=O)O[C@H]2[C@H]1CC/C(Cn1cc(CNC(=O)c3cc4ccccc4[nH]3)nn1)=C\CC[C@@]1(C)O[C@@H]21`, for which the GI50 was 14.2 µM and the TGI amounted to 27.6 µM. For `CN1CCN(c2nc3c(c(=O)n(C)c(=O)n3C)n2C)CC1`, the TGI is greater than 100 µM. Take `Cc1c2cccc-2c(N(C)C)cc2c1[nH]c1ccccc12`: the TGI was 21.5 µM. Still for that read-out and setting: under `COc1cc(C=Nc2ccc(Oc3ccc(Cl)cc3)c(Cl)c2)cc(OC)c1OC` stands 48.3 µM.
